From PubChem BioAssay AID485297 (National Center for Advancing Translational Sciences (NCATS), 2010)
Screen size: about 320,000 compounds; about 9,100 (2.8%) were called active. Inconclusive means that the source gave no clear call. Such entries were picked first, then a sample of the others. Calls follow the shape of the dose curve; as a rule, active = well fitted activation curve with a large enough effect; inconclusive = small, poorly fitted or top-dose-only effect; inactive = no such curve, though single readings can be large or run the other way. Potencies of inconclusive entries are left out as doubtful fits.

Assay: qHTS Assay for Rab9 Promoter Activators; also: nearly all actives have a fitted effect of over 60% in size; as to activation, negative = inhibition: % of control where 0% means no effect
Settings: Huh7 Rab9 promoter-luciferase reporter, luminescence, 24 h; series mostly up to 9.22 µM; activation, negative = inhibition: at the top concentration
Method in brief: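 Rab9 promoter-driven luciferase in stably transfected Huh7 cells; 1500 cells/well rested 2 h, exposed to compound in DMSO for 24 h at 37 °C, 5% CO2. Luminescence read 10 min after adding luciferase reagent at ambient temperature.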
Potency is read from the fitted curve at half-maximal effect; tags tell the direction and shape of the fitted curve.

SMILES	Potency	activation, negative = inhibition
COc1ccc2oc(=O)c(-c3nnc(N)s3)cc2c1	inconclusive [activator, partial curve, poor fit]	–
COc1ccc(-c2nc(C#N)c(NCCc3ccccc3)o2)cc1OC	inconclusive [activator, single point]	–
NC(=O)C1CCN(C(=O)CCSc2ccccc2)CC1	inconclusive [activator, single point]	–
COc1ccc(Cl)cc1NC(=O)C(C)N(C)Cc1ccc(C(F)(F)F)cc1 (stereo not given)	–	inactive: -5.13%
CCOC(=O)/C(C#N)=C1/C=CN(c2ccccc2)C=N1	inconclusive [activator, partial curve]	–
O=C(Nc1nnc(-c2ccc(F)cc2)o1)c1ccco1	–	inactive: 0.0972%
Cc1cc(N2CCCCC2)nc2ccc(NC(=O)CCC(=O)NCCC(C)C)cc12	active: 3.16 µM	–
O=C(NC(=S)Nc1ccc2c(c1)C(=O)c1ccccc1C2=O)c1ccc(F)cc1	inconclusive [activator, partial curve]	–
C/C=C(\C)c1nnc(NC(=O)c2ccco2)s1	inconclusive [activator, partial curve]	–
CCC1CCCCN1CCCNC(=O)c1cc2c(=O)[nH]c3ccccc3c2n1C (stereo not given)	–	inactive: -3.29%
O=C(N=Nc1c(O)n(Cc2ccccc2)c2ccccc12)c1cc2ccccc2cc1O	inconclusive [activator, single point]	–
O=C(C1CCC1)N(CCc1ccccc1)Cc1nc2ccccc2c(=O)[nH]1	inconclusive [activator, partial curve]	–
Clc1ccc(SCc2cc(-c3ccc(Cl)cc3)on2)cc1	–	inactive: -6.03%
CCOc1ccc(N/C=C/C(=O)c2ccccc2)cc1	active: 0.316 µM	–
O=C(Nc1nc(-c2ccc(S(=O)(=O)N3CCCC3)cc2)cs1)c1cccs1	–	inactive: -24.8%
Cc1cc(C)n(-c2ccc(C(=O)Nc3ccc4c(c3)OCO4)cc2)n1	inconclusive [activator, single point]	–
O=C(/C=C/c1cccc([N+](=O)[O-])c1)Nc1cccc(NC(=O)c2cccs2)c1	–	inactive: 8.37%
CCc1ccc(-c2nc(SCC(=O)N(CC)C3CCS(=O)(=O)C3)n[nH]2)cc1 (stereo not given)	inconclusive [activator, partial curve]	–
O=C(NCc1cccnc1)Nc1cccc(C(F)(F)F)c1	–	inactive: 3.21%
Cn1c(=NC(=O)CS(=O)(=O)c2ccccc2)sc2ccccc21	inconclusive [activator, single point]	–
CC(C)C(NC(=O)c1ccccc1F)C(=O)OCC(=O)c1ccc(F)cc1 (stereo not given)	inconclusive [activator, partial curve]	–
CCN(C(=O)c1cccs1)c1nnc(-c2ccncc2)s1	inconclusive [activator, single point]	–
C=C(C)C(=O)Nc1cccc(C2=NOC3(C2)C[C@@H](C(N)=O)N(C(=O)/C=C/C=C/C)C3)c1 (stereo not given in full)	–	inactive: -6.55%
N#C/C(=C(/O)CN1CCCCC1)c1nc(-c2ccc(Cl)cc2)cs1	inconclusive [activator, single point]	–
O=C(c1ccc2ncsc2c1)N1CCN(c2cccc(C(F)(F)F)c2)CC1	–	inactive: -5.16%

SMILES	Potency	activation, negative = inhibition
COc1ccccc1CN1CC(C(=O)NCc2cc(F)ccc2C)CCC1=O (stereo not given)	inconclusive [activator, single point]	–
Cc1ccc(C)c(OCc2nc3ccccc3[nH]2)c1	inconclusive [activator, single point]	–
Cc1[nH]n(C(N)=S)c(=O)c1N=Nc1cccc(Cl)c1	inconclusive [activator, partial curve]	–
c1cn2c(NC3CCCC3)c(-c3ccc(N4CCOCC4)cc3)nc2cn1	inconclusive [activator, partial curve]	–
COc1cc(/C=N\NC(=O)c2cccc(Cl)c2)ccc1Oc1ccc([N+](=O)[O-])cn1	inconclusive [activator, single point]	–
COCCn1c(C)cc(C(=O)COC(=O)c2ccc3ncsc3c2)c1C	active: 2.82 µM	–
CCOc1cc(C2NN=C(c3ccccc3)S2)ccc1OCc1ccccc1Cl (stereo not given)	inconclusive [activator, partial curve]	–
CC(C)CC(=O)N/C(N)=N/c1nc2ccccc2s1	active: 2.82 µM	–
CC(=O)NC(=S)Nc1ccc(NC(=O)c2cccs2)cc1	inconclusive [activator, partial curve]	–
Cc1oc(/N=C/c2ccc(O)cc2O)c(C#N)c1C	–	inactive: 2.23%
COc1cc(NC(=S)Nc2ncccc2C)cc(OC)c1OC	inconclusive [activator, single point]	–
CC1CCCCN1CCNC(=O)CN1C(=O)COc2ccccc21 (stereo not given)	–	inactive: -2.34%
COc1ccc(-c2cn3ccc(C)cc3n2)cc1	active: 0.112 µM	–
O=C(COc1ccc2ccccc2c1)N1CCCC1	inconclusive [activator, single point]	–
O=c1c2ccccc2cnn1-c1ccc(Cl)cc1	active: 1 µM	–
CCNC(=S)NNC(=O)c1cc(-c2ccc(OC)cc2)nc2ccccc12	inconclusive [activator, partial curve]	–
Cc1ccc(-n2cc(C(=O)c3cc(Cl)ccc3O)cc(C#N)c2=O)cc1	–	inactive: -5.56%
COc1ccc(NC(=O)CN2CCC(C)CC2)c([N+](=O)[O-])c1	–	inactive: 5.14%
CCOc1ccccc1N(CC(=O)Nc1ccc(S(=O)(=O)N2CCCC2)cc1)S(C)(=O)=O	–	inactive: -3.2%
COc1cc(OC)c(OC)cc1CCC(C)NC(=O)Cc1ccccc1 (stereo not given)	–	inactive: -0.288%
COc1ccc(N2CCN(C(=O)c3cc4c(-c5cccc(OC)c5)nn(C)c4s3)CC2)cc1	inconclusive [activator, single point]	–
CCOC(=O)c1ccc(NC(=O)Cn2nnc3ccccc32)cc1	active: 2.82 µM	–
COCCCNC(=O)C(=O)C1C(=O)Nc2ccccc21 (stereo not given)	–	inactive: 0.883%
O=C(NCCc1ccccc1)c1ccncc1	active: 3.55 µM	–
CCOc1ccccc1C1N=C(c2ccc(OC)cc2)CC(c2ccccc2O)N1 (stereo not given)	inconclusive [activator, single point]	–
